The values below come from PubChem BioAssay AID485344 (National Center for Advancing Translational Sciences (NCATS), 2010).

Each structure is given as a SMILES string. Hit rate of the full screen: of about 340,000 compounds, about 6,900 (2%) were called active. No stated cut-off is given here; in the data, active means inhibition above about 30%; inactive means below that, where a call was filed. This is a selection; strong and weak results do not stand in their true shares. Where no call is shown, the source filed none.

The assay deals with D(2) dopamine receptor (Homo sapiens) (UniProt P14416). Kind of assay: HTS Assay for Allosteric Antagonists of the Human D2 Dopamine Receptor: Primary Screen for Antagonists. Further: 0% is about no effect. The note with it: HEK293 TREx D2 cells, calcium flux, dopamine EC80; at 10 µM; stronger effect = higher value. Put shortly: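 Read-out: kinetic calcium fluorescence (1 cycle/s) in inducible HEK293 T-REx D2 cells after an EC80 dopamine addition that followed 180 s compound preincubation. Loss of the dopamine response indicates antagonism.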
Chain of UniProt P14416 (P14416 whole entry, looked up): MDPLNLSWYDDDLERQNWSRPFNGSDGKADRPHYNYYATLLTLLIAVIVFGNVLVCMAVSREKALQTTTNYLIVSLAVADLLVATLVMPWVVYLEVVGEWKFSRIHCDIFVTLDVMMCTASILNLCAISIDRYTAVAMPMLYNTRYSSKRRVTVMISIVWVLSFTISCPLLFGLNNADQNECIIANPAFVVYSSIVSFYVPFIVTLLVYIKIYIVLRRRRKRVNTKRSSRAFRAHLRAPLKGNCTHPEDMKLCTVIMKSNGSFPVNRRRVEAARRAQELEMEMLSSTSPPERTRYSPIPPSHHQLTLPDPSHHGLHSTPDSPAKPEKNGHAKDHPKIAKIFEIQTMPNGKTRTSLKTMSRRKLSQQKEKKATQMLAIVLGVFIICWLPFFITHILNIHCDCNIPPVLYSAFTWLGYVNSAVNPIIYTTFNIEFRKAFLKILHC
In the case of `CCCCc1nn2c(=O)cc(COC(=O)c3cccc(NC(=O)CCc4ccccc4)c3)nc2s1`, the inhibition – broadly, the change of the read-out against control, counted positive when it falls – is -4.1%. Under `CCCN(CCC)C(=O)Cn1c(=O)n(-c2ccccc2)c(=O)c2c3c(sc21)CCCC3` stands -3.35%; under `N#C/C(=C/c1ccc(Cl)cc1)c1nc(-c2ccc(Br)cc2)cs1`, -0.716%.

Consider `C/C(=N\NC(=O)C1(C)CC1(Br)Br)c1cccc(NC(=O)C2CCC2)c1` (stereo unspecified), for which the inhibition was active: 30.2%. For the molecule `O=C(Nc1ccc(OC(F)(F)F)cc1)c1nc2ccccc2nc1N1CCCCC1`, the inhibition is 5.98%. In the case of `CCn1c2ccccc2c2cc(CN3CCN(Cc4ccccc4Cl)CC3)ccc21`, the inhibition is -7.24%. Under `CCC(=O)NNc1nc2c(F)cc(F)cc2s1` stands active: 39.5%; under `COc1cccc(NC(=O)CSc2nc3cc(OC)c(OC)cc3c3nc(-c4ccccc4)nn23)c1`, 6.63%; under `COc1cc(OC)c(NC2(c3ccccc3)C(=O)c3ccccc3C2=O)cc1Cl`, 0.913%. Under `CCc1ccccc1NC(=O)Nc1ccc2c(c1)N(CC)C(=O)c1ccccc1S2` stands -6.16%.

Turning to `CCOc1ccccc1CNC(=O)c1cc2n(n1)CCCN(Cc1ccc(C)cc1)C2=O`, the inhibition amounted to 7.76%.

For the molecule `CCc1cccc(-n2c(C)nc3c(cnn3-c3ccc(C)c(C)c3)c2=O)c1`, the inhibition is -10.8%. Regarding `CCOc1ccc(NC(=O)CSc2nc(C)c(C(=O)Nc3ccccc3)c(-c3ccc(Cl)cc3)c2C#N)cc1`, the inhibition was determined as 6.07%. With `O=C(c1ccc(CSc2nc3ccncc3n2Cc2ccc(F)cc2)cc1)N1CCCCCC1`, the inhibition amounted to 2.88%. Turning to `COCCCNC(=O)c1cc2c(=O)oc3ccc(C)cc3c2s1`, the inhibition stood at 2.27%. With `CCc1nc2ccc(C(=O)N3CCN(c4cccc(C)c4C)CC3)cc2nc1CC` the figure was -8.61%; with `Cc1ccc(-c2nc3c4ccccc4[nH]c(=O)n3n2)cc1`, 0.235%; with `CCOc1ccc(-c2cc(OC(=O)c3ccc(OC)cc3)c3c(C)oc(C)c3c(=O)c2)cc1`, 1.83%. Under `Cc1ccc(S(=O)(=O)N(C)CC(=O)OCC(=O)N2CC(=O)Nc3ccccc32)cc1` stands active: 36.8%; under `CCOc1ccc(C(=O)N(Cc2sccc2C)C2CCS(=O)(=O)C2)cc1` (stereo unspecified), -10.6%; under `O=C1CC(c2cccc(O)c2)c2c(nc(SCc3ccccc3F)[nH]c2=O)N1` (stereo unspecified), -1.43%.

Take `O=S(=O)(c1ccc2c(c1)OCO2)N1CCN(c2nnnn2-c2ccccc2)CC1`: the inhibition is active: 36.2%.

For the molecule `C[C@H](NC(=O)OC(C)(C)C)c1nnc(SCc2c(F)cccc2Cl)o1`, the inhibition came out at 6.12%. With `O=C(CN1CCOCC1)N1CCN(c2ccc([N+](=O)[O-])cc2)CC1` the figure was active: 83.4%. Under `CCc1ccc(NC(=O)Cn2nc3c4ccccc4n(Cc4ccccc4)cc-3c2=O)cc1` stands -5.8%; under `COc1ccc(COc2ccsc2C(=O)Nc2ccc(Cl)cc2)cc1`, active: 39.9%. With `Cc1cccc(-n2ccnc2SCC(=O)Nc2ccc(F)cc2F)c1C` the figure was -7.47%. Regarding `Cc1ccc(C)c(CNC(=O)c2ccc3c(c2)nc2n3CCCCC2)c1`, the inhibition was -22.7%. With `Cc1ccc(C)c(CN2CCC(CNC(=O)Nc3ccc(Br)cc3F)CC2)c1` the figure was 8.77%; with `COc1cc2c(cc1OC)C(COc1ccc3c(C)cc(=O)oc3c1)N(C(=O)C(C)C)CC2` (stereo unspecified), -8.23%.

As to `O=C(CSc1nc2nc[nH]c2c(=O)[nH]1)NC1CCCCC1`, the inhibition is active: 47.5%. With `CCOC(=O)c1nc(Nc2ccc(C(C)=O)cc2)c2ccccc2n1` the figure was -14.8%; with `O=C(Nc1c(C(=O)Nc2ccc(F)cc2)oc2ccccc12)c1cc2ccccc2o1`, 0.526%; with `COc1ccc(Cn2c(=O)c3cccnc3n(CC(=O)Nc3ccc(C)c(F)c3)c2=O)cc1`, 3.53%. Consider `Brc1cccc(-c2nc(-c3ccncc3)no2)c1`, for which the inhibition was active: 40.9%. With `CC(C)NC(=O)/C(C#N)=C\c1ccc(N(C)C)o1` the figure was active: 40.3%. With `Cc1ccc(NC(=O)Cn2nc(-c3ccncc3)ccc2=O)cc1Cl` the figure was 1.29%; with `CCOC(=O)c1ccc2c(c1)N(C(CC)C(=O)Nc1ccccc1OC)C(=O)c1ccccc1S2` (stereo unspecified), 11.5%; with `CC(C)CCNC(=O)CSc1nc2ccccc2nc1Cc1ccccc1`, -5.17%. For `O=c1oc2cc(O)ccc2cc1-c1nc2c(s1)CCc1ccccc1-2`, the inhibition was active: 80.2%.

As for `COc1ccc(-c2c3c(=O)n(C)c(=O)n(C)c3c3c(-c4cccc(C)c4)nc4ccccc4n23)cc1`, the inhibition was found to be 15.9%. Under `COc1ccc(S(=O)(=O)NCCCO)cc1-c1nnc2c3ccccc3c(C)nn12` stands 10.3%; under `CCOc1ccc(NC(=O)Cn2cc(C(=O)c3ccc(CC)cc3)c(=O)c3cc(OC)c(OC)cc32)cc1`, 7.27%; under `COc1ccc(NS(=O)(=O)c2ccc3c(c2)CCN3C(=O)CCC(=O)O)cc1Cl`, -8.75%. With `COc1ccc2cc3cc(C(=O)N4CCN(c5cccc(Cl)c5)CC4)sc3nc2c1` the figure was 2.86%. With `CCc1ccc(CCC(=O)Nc2ccc(S(N)(=O)=O)cc2)o1` the figure was active: 43.5%. Turning to `CC(C)C(=O)N(Cc1ccccc1)S(=O)(=O)c1ccc2c(c1)oc(=O)n2C`, the inhibition is -21%. Under `Cc1nc2nncn2c(NCc2ccc(Cl)cc2)c1C` stands 6.98%; under `Cc1ccc(CN(C(=O)COc2ccc(Cl)c(C)c2)C2CCS(=O)(=O)C2)o1` (stereo unspecified), -11.9%; under `Cc1nc2nc(SCC(=O)O)nn2c(C)c1Cc1c(F)cccc1Cl`, -10.1%. With `Cc1ccc(Cl)cc1NC(=O)Cn1c(=O)n(CCCS(=O)(=O)C2CCCCC2)c(=O)c2ccccc21` the figure was 12.2%; with `Cc1csc2nc(COC(=O)c3ccccc3NC(=O)COc3ccccc3F)cc(=O)n12`, 15.9%; with `CCOc1ccc(C2=NC(c3ccc(OC)cc3)=Nc3ccc(Cl)cc3N2)cc1`, -9.5%. On to `C=CCC(CC=C)(CNC(=O)C(=O)Nc1cc(C)ccc1OC)c1ccc(OC)c(OC)c1`, for which the inhibition was -8.73%.

As to `O=C(Cn1cc(S(=O)(=O)N2CCCC2)c(S(=O)(=O)N2CCCC2)c1)Nc1cccc(F)c1`, the inhibition was 5.71%. Under `COc1ccccc1CNC(=O)CN1C(=O)COc2ccc(S(=O)(=O)N3CCC(C)CC3)cc21` stands 8.42%; under `CCOC(=O)c1cccc(NC(=O)C2CCCN(S(=O)(=O)c3ccc4c(c3)oc(=O)n4C)C2)c1` (stereo unspecified), 20.9%.

Turning to `COc1ccc(NC(=O)/C(C#N)=C/c2cc(C)n(-c3ccc(F)cc3)c2C)cc1`, the inhibition is 16.2%. Consider `CCc1ccc(NC(=O)C(C)n2nnc3sc(-c4ccccc4)cc3c2=O)cc1` (stereo unspecified), for which the inhibition turned out to be 14.2%. Consider `c1ccc(CCCN2CCN(c3ccccn3)CC2)cc1`, for which the inhibition was active: 75.5%. On to `CCOc1cc(/C=C2\COc3ccccc3C2=O)cc(Br)c1OCC(=O)N(C)C`, for which the inhibition is active: 44.5%.

For the molecule `CCOC(=O)c1c(-c2ccccc2)csc1NC(=O)c1cc(-c2ccc(Br)cc2)on1`, the inhibition was -4.51%.

Turning to `Cc1nc2ccc(S(=O)(=O)CCC(=O)Nc3ccc(C)c(C)c3)cc2s1`, the inhibition turned out to be 1.33%. With `COCCCNC(=O)c1sc2nc3n(c(=O)c2c1C)CCC3` the figure was 3.05%; with `CCOc1ccc(CCNC(=O)CCc2c(C)nc3c(-c4ccccc4)c(C)nn3c2C)cc1OCC`, 6.63%; with `CCOc1ccc(NC(=O)CC2C(=O)N(c3ccccc3)C(=O)N2C2CCCCC2)cc1` (stereo unspecified), 4.66%.

For `Cc1cc(N2CCCCC2)nc(N)n1`, the inhibition is active: 60.1%. Under `Cc1nc(Nc2ccc(Cl)cc2)cc(-c2ccccc2)n1` stands -1.66%; under `COc1ccc(CNC(=O)c2nc(SC(C)C)ncc2Cl)cc1`, -9.85%; under `Cc1cc(NC(=O)Nc2ccc(Cl)cc2)n(-c2ccccc2)n1`, active: 40.6%. With `Cc1ccn2c(Nc3ccc4c(c3)OCO4)c(-c3ccc(N(C)C)cc3)nc2c1` the figure was -23.4%; with `CCN1CCN(c2oc(-c3ccc(COc4ccc(C)cc4)o3)nc2C#N)CC1`, -10.3%; with `COc1ccc2oc(-c3cccc(NC(=O)c4ccc(C#N)cc4F)c3)nc2c1`, 6.38%.

On to `CCCCNC(=O)c1ccc2c(c1)NC(=O)C(CS(=O)(=O)Cc1cccc(C)c1)N2` (stereo unspecified), for which the inhibition turned out to be 14.6%. Under `CC1=C(C(=O)Nc2cccnc2)C(c2cccc(F)c2)n2nc(SCc3ccccc3)nc2N1` (stereo unspecified) stands -2.95%. For `CC(C)C(=O)N1c2ncnn2C2(CCCCC2)[C@@H]2CCCC[C@@H]21`, the inhibition is -9.71%. Under `COc1cc(C(=O)Nc2ccc3[nH]c(=O)sc3c2)cc(OC)c1OC` stands 18.4%; under `COc1cccc(NC(=O)Cn2c(=O)n(-c3ccc(Cl)cc3)c(=O)c3oc4ccccc4c32)c1`, -8.26%; under `Cc1ccc(S(=O)(=O)N2CCN(Cc3noc(CCC(=O)N4CCCCC4)n3)CC2)c(C)c1`, -0.667%. With `COc1ccc(C2CC(=O)N(Cc3ccc(F)cc3)c3ccccc3S2)cc1` (stereo unspecified) the figure was 2.76%; with `COc1cccc(C(=O)NCC(=O)OCc2cc(=O)n3c(C)csc3n2)c1`, 19.8%; with `CC(C)Cn1c(=O)c2sccc2n2c(CCCC(=O)NCCc3ccccc3)nnc12`, -13.8%.

Consider `CCN1CCN(c2cc3c(cc2F)c(=O)c(S(=O)(=O)c2ccc(OC)cc2)cn3CC)CC1`, for which the inhibition came to 7.24%.

In the case of `Cn1c(C(=O)NCc2ccccc2F)cc2oc3ccccc3c21`, the inhibition was -0.263%. Under `Cc1c(C(=O)Nc2cccc(C(F)(F)F)c2)sc2nc3n(c(=O)c12)CCCC3` stands 20%; under `O=C(c1ccco1)n1nc(-c2ccccc2)nc1NCc1ccc(F)cc1`, 4.95%.

With `Cc1cc(C)nc(/N=C(\N)Nc2ccc(CC(=O)OC(C)C)cc2)n1`, the inhibition is active: 58.6%. With `COc1cccc2sc(N(Cc3cccnc3)C(=O)Cc3ccccc3)nc12` the figure was 3.63%.

Consider `CC1=C(C(=O)Nc2ccc(C)cc2C)C(C(C)C)n2nc(SCc3ccccc3Cl)nc2N1` (stereo unspecified), for which the inhibition was determined as 0.924%. Consider `CCN(CC)CCCNC(=O)CSc1c2c(nc3cc(Cl)ccc13)CCCC2`, for which the inhibition is 23.5%. With `Cc1ccc(S(=O)(=O)c2cn(CC(=O)Nc3ccc4c(c3)OCO4)c3ccccc3c2=O)cc1` the figure was -10.8%; with `Cc1sc2ncn(CC(=O)N3CCN(c4ccc(F)cc4)CC3)c(=O)c2c1S(=O)(=O)N1CCCCC1`, -12.8%.

With `Cc1ccc(Nc2nc3c(S(=O)(=O)c4ccccc4)nnn3c3ccsc23)c(C)c1`, the inhibition came to 8.4%.

For `Cc1cccc2sc(N(CCCN(C)C)C(=O)c3ccc(Cl)s3)nc12`, the inhibition amounted to 16.1%.

As for `COc1cc(C2C(C(=O)OCC(C)C)=C(C)N=C3SCCC(=O)N32)ccc1OCc1ccccc1` (stereo unspecified), the inhibition came to 5.6%. With `Cc1cccc(NC(=O)Cn2nnc(C(=O)Nc3ccc(F)c(Cl)c3)c2N)c1` the figure was -3.15%.
